From PubChem BioAssay (NCATS)
Where “and” joins values, the source holds several entries; their conditions need not be identical. Identical values can stand only once. The shares of active, inactive and inconclusive entries below differ from those in the screen. Where the call is inconclusive, the potency comes from a doubtful curve fit. Calls of active or inactive are those of the source. Calls come from the whole dose curve; as a rule, active = well fitted cell-killing curve with a large enough effect; inconclusive = small, poorly fitted or top-dose-only effect, or effect the other way; inactive = no such curve, though single readings can be large or run the other way.

Assay: Viability qHTS for spleen associated tyrosine kinase inhibitor (SYKi) naive MV4-11 cells (AID 1963823); note: nearly all actives have a fitted effect of over 40% in size
Details: MV4-11 AML viability, CellTiter-Glo luminescence, 72 h; series mostly up to 45 µM
In short: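 SYK inhibitor-naive MV4-11 cells, 500 per well, exposed to compounds for 72 hr at 37 C, 5% CO2. Viability read as CellTiter-Glo luminescence after 10 min at room temperature.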
Potency is the fitted concentration of half-maximal effect; tags give direction and shape of the fitted curve.

Row | Structure (SMILES) | Potency
1 | C=CC(=O)N[C@H]1CCOC[C@H]1Nc1ncc2cc(-c3c(Cl)c(OC)cc(OC)c3Cl)ccc2n1 | inconclusive: 16.6 µM [cytotoxic, partial curve]
2 | CCN1CCN(Cc2ccc(NC(=O)c3ccc(C)c(NC(=O)c4cncc(-c5cccs5)c4)c3)cc2C(F)(F)F)CC1 | inconclusive: 14.6 nM [cytotoxic, full curve] and inconclusive: 20.9 nM [cytotoxic, full curve]
3 | C=C1C(=C/C=C2\CCC[C@]3(C)[C@@H]([C@H](C)/C=C/[C@@H](O)C4CC4)CC[C@@H]23)C[C@@H](O)C[C@@H]1O | inconclusive: 0.0027 µM [cytotoxic, full curve]
4 | CCCCN(CCCC)CCCOC(=O)c1ccc(N)cc1 | inactive
5 | Cc1ncc(NC(=O)c2ccc(CN3CCN(C)CC3)c(C(F)(F)F)c2)cc1Nc1nccc(-c2cccnc2)n1 | active: 920 nM and active: 1.66 µM
6 | Cc1cc(O)c(-c2ccc([C@@H](C)CN(C)C)cc2)c2c1[nH]c(=O)c1sccc12 | active: 0.0184 µM
7 | COc1cc(C(=O)OCCCN2CCCN(CCCOC(=O)c3cc(OC)c(OC)c(OC)c3)CC2)cc(OC)c1OC | active: 21.1 µM
8 | Cc1nc(-c2ccc(Cl)cc2)oc1COC(C)(C)C(=O)O | inactive
9 | CN(C)CCCN1c2ccccc2Sc2ccc(C(F)(F)F)cc21 | inconclusive: 9.44 µM [cytotoxic, partial curve, poor fit]
10 | CC(C)n1cc(-c2ccc3c(c2)N(C)CC3)c2c(NS(=O)(=O)c3ccn(C)n3)ccnc21 | inconclusive: 20.9 µM [cytotoxic, partial curve]
